Data from the supplement of paper PMC11098506.
± gives the standard deviation of the averaged measurements. The list shows a part of the results.

B1: VDAC2; numbered along this chain (parent)
chain: MATHGQTCARPMCIPPSYADLGKAARDIFNKGFGFGLVKLDVKTKSCSGVEFSTSGSSNTDTGKVTGTLETKYKWCEYGLTFTEKWNTDNTLGTEIAIEDQICQGLKLTFDTTFSPNTGKKSGKIKSSYKRECINLGCDVDFDFAGPAIHGSAVFGYEGWLAGYQMTFDSAKSKLTRNNFAVGYRTGDFQLHTNVNDGTEFGGSIYQKVCEDLDTSVNLAWTSGTNCTRFGIAAKYQLDPTASISAKVNNSSLIGVGYTQTLRPGVKLTLSALVDGKSINAGGHKVGLALELEA

Variants of: B1
Test: log2 fold difference of barcode abundance, GFP-BAK-high vs GFP-BAK-low sorted fraction (log2 ratio); higher = VDAC2 variant stabilises more GFP-BAK at mitochondria
Settings: with BAK1 (mouse, GFP-tagged), Mcl1-/- Bax-/- Bak-/- Vdac2-/- MEF + GFP-mBAK
Protocol: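 Deep mutational scan of human VDAC2 (FLAG-tagged) with single amino acid substitutions at positions Q165–F180 (β10–11 loop), each barcoded clone expressed by retrovirus in Mcl1/Bax/Bak/Vdac2-deficient MEFs that also express GFP-tagged mouse BAK. Cells were sorted into GFP-high and GFP-low fractions and barcodes counted by Illumina sequencing. The score is log2(CPM) in GFP-BAK-high minus log2(CPM) in GFP-BAK-low, per barcode; barcodes of the same variant are averaged. It reports BAK recruitment and stabilisation at the mitochondrial outer membrane.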
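Note: sorting relied on GFP fluorescence, which stays low in these cells lacking VDAC2 and climbs sharply once wild-type VDAC2 is expressed.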

| Variant | log2 fold difference |
| --- | --- |
| MATHGQTCARPMCIPPSYADLGKAARDIFNKGFGFGLVKLDVKTKSCSGVEFSTSGSSNTDTGKVTGTLETKYKWCEYGLTFTEKWNTDNTLGTEIAIEDQICQGLKLTFDTTFSPNTGKKSGKIKSSYKRECINLGCDVDFDFAGPAIHGSAVFGYEGWLAGYQMTFDSAKSKLTRNNAAVGYRTGDFQLHTNVNDGTEFGGSIYQKVCEDLDTSVNLAWTSGTNCTRFGIAAKYQLDPTASISAKVNNSSLIGVGYTQTLRPGVKLTLSALVDGKSINAGGHKVGLALELEA [F180A] | 0.911 ± 0.93 |
| MATHGQTCARPMCIPPSYADLGKAARDIFNKGFGFGLVKLDVKTKSCSGVEFSTSGSSNTDTGKVTGTLETKYKWCEYGLTFTEKWNTDNTLGTEIAIEDQICQGLKLTFDTTFSPNTGKKSGKIKSSYKRECINLGCDVDFDFAGPAIHGSAVFGYEGWLAGYQMTFDSAKHKLTRNNFAVGYRTGDFQLHTNVNDGTEFGGSIYQKVCEDLDTSVNLAWTSGTNCTRFGIAAKYQLDPTASISAKVNNSSLIGVGYTQTLRPGVKLTLSALVDGKSINAGGHKVGLALELEA [S173H] | -0.352 ± 0.43 |
| MATHGQTCARPMCIPPSYADLGKAARDIFNKGFGFGLVKLDVKTKSCSGVEFSTSGSSNTDTGKVTGTLETKYKWCEYGLTFTEKWNTDNTLGTEIAIEDQICQGLKLTFDTTFSPNTGKKSGKIKSSYKRECINLGCDVDFDFAGPAIHGSAVFGYEGWLAGYQMTFDQAKSKLTRNNFAVGYRTGDFQLHTNVNDGTEFGGSIYQKVCEDLDTSVNLAWTSGTNCTRFGIAAKYQLDPTASISAKVNNSSLIGVGYTQTLRPGVKLTLSALVDGKSINAGGHKVGLALELEA [S170Q] | 0.353 ± 0.41 |
| MATHGQTCARPMCIPPSYADLGKAARDIFNKGFGFGLVKLDVKTKSCSGVEFSTSGSSNTDTGKVTGTLETKYKWCEYGLTFTEKWNTDNTLGTEIAIEDQICQGLKLTFDTTFSPNTGKKSGKIKSSYKRECINLGCDVDFDFAGPAIHGSAVFGYEGWLAGYQMTFDSAGSKLTRNNFAVGYRTGDFQLHTNVNDGTEFGGSIYQKVCEDLDTSVNLAWTSGTNCTRFGIAAKYQLDPTASISAKVNNSSLIGVGYTQTLRPGVKLTLSALVDGKSINAGGHKVGLALELEA [K172G] | 0.0329 ± 0.88 |
| MATHGQTCARPMCIPPSYADLGKAARDIFNKGFGFGLVKLDVKTKSCSGVEFSTSGSSNTDTGKVTGTLETKYKWCEYGLTFTEKWNTDNTLGTEIAIEDQICQGLKLTFDTTFSPNTGKKSGKIKSSYKRECINLGCDVDFDFAGPAIHGSAVFGYEGWLAGYQMTFDSAKKKLTRNNFAVGYRTGDFQLHTNVNDGTEFGGSIYQKVCEDLDTSVNLAWTSGTNCTRFGIAAKYQLDPTASISAKVNNSSLIGVGYTQTLRPGVKLTLSALVDGKSINAGGHKVGLALELEA [S173K] | -0.75 ± 0.63 |
| MATHGQTCARPMCIPPSYADLGKAARDIFNKGFGFGLVKLDVKTKSCSGVEFSTSGSSNTDTGKVTGTLETKYKWCEYGLTFTEKWNTDNTLGTEIAIEDQICQGLKLTFDTTFSPNTGKKSGKIKSSYKRECINLGCDVDFDFAGPAIHGSAVFGYEGWLAGYQMTFDGAKSKLTRNNFAVGYRTGDFQLHTNVNDGTEFGGSIYQKVCEDLDTSVNLAWTSGTNCTRFGIAAKYQLDPTASISAKVNNSSLIGVGYTQTLRPGVKLTLSALVDGKSINAGGHKVGLALELEA [S170G] | 0.631 ± 1 |
| MATHGQTCARPMCIPPSYADLGKAARDIFNKGFGFGLVKLDVKTKSCSGVEFSTSGSSNTDTGKVTGTLETKYKWCEYGLTFTEKWNTDNTLGTEIAIEDQICQGLKLTFDTTFSPNTGKKSGKIKSSYKRECINLGCDVDFDFAGPAIHGSAVFGYEGWLAGYQMTFDSAKSKSTRNNFAVGYRTGDFQLHTNVNDGTEFGGSIYQKVCEDLDTSVNLAWTSGTNCTRFGIAAKYQLDPTASISAKVNNSSLIGVGYTQTLRPGVKLTLSALVDGKSINAGGHKVGLALELEA [L175S] | -0.514 ± 0.83 |
| MATHGQTCARPMCIPPSYADLGKAARDIFNKGFGFGLVKLDVKTKSCSGVEFSTSGSSNTDTGKVTGTLETKYKWCEYGLTFTEKWNTDNTLGTEIAIEDQICQGLKLTFDTTFSPNTGKKSGKIKSSYKRECINLGCDVDFDFAGPAIHGSAVFGYEGWLAGYQMTWDSAKSKLTRNNFAVGYRTGDFQLHTNVNDGTEFGGSIYQKVCEDLDTSVNLAWTSGTNCTRFGIAAKYQLDPTASISAKVNNSSLIGVGYTQTLRPGVKLTLSALVDGKSINAGGHKVGLALELEA [F168W] | 1.3 ± 0.75 |
| MATHGQTCARPMCIPPSYADLGKAARDIFNKGFGFGLVKLDVKTKSCSGVEFSTSGSSNTDTGKVTGTLETKYKWCEYGLTFTEKWNTDNTLGTEIAIEDQICQGLKLTFDTTFSPNTGKKSGKIKSSYKRECINLGCDVDFDFAGPAIHGSAVFGYEGWLAGYQMTFDSAKSKLTRNIFAVGYRTGDFQLHTNVNDGTEFGGSIYQKVCEDLDTSVNLAWTSGTNCTRFGIAAKYQLDPTASISAKVNNSSLIGVGYTQTLRPGVKLTLSALVDGKSINAGGHKVGLALELEA [N179I] | -0.405 ± 0.66 |
| MATHGQTCARPMCIPPSYADLGKAARDIFNKGFGFGLVKLDVKTKSCSGVEFSTSGSSNTDTGKVTGTLETKYKWCEYGLTFTEKWNTDNTLGTEIAIEDQICQGLKLTFDTTFSPNTGKKSGKIKSSYKRECINLGCDVDFDFAGPAIHGSAVFGYEGWLAGYQMTFDSAKSKLTRWNFAVGYRTGDFQLHTNVNDGTEFGGSIYQKVCEDLDTSVNLAWTSGTNCTRFGIAAKYQLDPTASISAKVNNSSLIGVGYTQTLRPGVKLTLSALVDGKSINAGGHKVGLALELEA [N178W] | 0.419 ± 0.89 |
